The results in this text go back to the supplement of paper PMC11417369.

The other results are listed elsewhere or left out.

The subject of the experiment is PfSIP2 AP2 domain 1 (GST-tagged). Kind of experiment: gcPBM binding intensity (ln(normalized median fluorescence intensity)); higher = stronger DNA binding. In short, it runs like this:
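Probes on an Agilent 4 × 180k array were primer-extended, double-stranded and 36 bp long, taken from intergenic genomic regions, with negative controls added. GST-tagged P. falciparum DNA-binding domains from E. coli, about 25 μg on average, were applied to the array for 1 h in 1× PBS containing 1% milk, 0.2 mg/ml BSA, 0.5% salmon testes DNA and 0.03% Triton X-100. Binding intensity, obtained after Alexa488 anti-GST antibody detection and a 488 nm scan, is the highest Masliner-normalised natural-log median intensity across replicate spots of either probe orientation.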
Take “ACATAGCAATGTTTCACACACAAGAAAAAATACAAT [CACACA_site2379]”: the “gcPBM binding intensity (ln)” value was determined as 6.92.

Regarding “TTTGAACTCTTAAGTGGTACAAATTTGTATTTTCTC [XGTACX_site2322]”, the “gcPBM binding intensity (ln)” value was determined as 6.92.

As to “GAAATGTGGTAATATACACACACGCATATATTTATA [CACACA_site6285]”, the “gcPBM binding intensity (ln)” value was determined as 6.95.

As for “AATGGAATATATATTTGTACATAAATATTATAATAA [XGTACX_site8524]”, the “gcPBM binding intensity (ln)” value was found to be 6.94.

In the case of “TATAAATAAAAATATACACACTGTATTATTGTAATA [CACACA_site7721]”, the “gcPBM binding intensity (ln)” value is 6.72.

Take “TTTACTCCTACAACATGTACATAAAATAAATTTTTT [XGTACX_site5010]”: the “gcPBM binding intensity (ln)” value worked out at 7.51.

Consider “ACATGTTAACTAAATGTACACACCTATGTTGATGTA [CACACA_site1821]”, for which the “gcPBM binding intensity (ln)” value was 6.97.

“TTATTTACAACTTTTTTTTTTTTATTTTATTTTATT [CACACA_negctrl_site341]”: the “gcPBM binding intensity (ln)” value worked out at 6.58.

For “AATATAAGTAGTACAGTGCATATAATAATTAGAAGA [GTGCAC_site9485]”, the “gcPBM binding intensity (ln)” value was 8.75.

Take “GATTAAACACAAAGAAGTACGGACATAAAAAAAAAA [XGTACX_site3686]”: the “gcPBM binding intensity (ln)” value was 7.18.

For the sequence “TTGATTTATATTTAATGTACATTTTTACAGAAAATT [XGTACX_site2747]”, the “gcPBM binding intensity (ln)” value amounted to 6.93.

Consider “CCATAAAAAGGATACACACACACACGCACATATATA [CACACA_site6550]”, for which the “gcPBM binding intensity (ln)” value stood at 7.28.

Take “TATTATTATTATTACACACACAATTATATTTACCCC [CACACA_site503]”: the “gcPBM binding intensity (ln)” value came out at 7.46.

As for TCGTGGTTTTAATAAGTGCGCAATTTAAATATTTTT, the “gcPBM binding intensity (ln)” value was 8.67.

Regarding “GTATATATATATATATATATATATTTTTATTTATTT [CACACA_negctrl_site589]”, the “gcPBM binding intensity (ln)” value came to 7.42.

Turning to “ATATAAATAATGTTGACACACACAATAATCTTATTA [CACACA_site9197]”, the “gcPBM binding intensity (ln)” value came to 7.07.

Take “AAAATATGGATTCATGATATTAAATTTAATTTAATG [XGTACX_negctrl_site214]”: the “gcPBM binding intensity (ln)” value stood at 6.71.

Take “GTTATACTCATATATACACACATATGTAAATATATA [CACACA_site5764]”: the “gcPBM binding intensity (ln)” value turned out to be 7.17.

As to “ATTATATTAGGTAATCAGTTAAATGTTTCCTTTTTA [CACACA_negctrl_site1229]”, the “gcPBM binding intensity (ln)” value was 6.6.

As for “ATACGAAAAAAAAAAAGTACACAAAAATATCTACAT [XGTACX_site2051]”, the “gcPBM binding intensity (ln)” value came to 7.01.

On to “TTTATATAATTTTGTGGTACTTATGTGTGTATATTA [XGTACX_site706]”, for which the “gcPBM binding intensity (ln)” value came to 7.08.

Turning to “CGCGCACCCAGACACACACACACACCGATATATATA [CACACA_site8687]”, the “gcPBM binding intensity (ln)” value was 10.6.

In the case of “AAAAAAAAAAAAAGTACACACTTATAAAATATTATG [CACACA_site4639]”, the “gcPBM binding intensity (ln)” value came out at 7.22.

Regarding “TAAATTATCTTTTTATGTACTTATTTTTATTATTTT [XGTACX_site3158]”, the “gcPBM binding intensity (ln)” value amounted to 7.06.

As for “TATTTTCAACATATTTGTACATATTTTATATTTTAA [XGTACX_site101]”, the “gcPBM binding intensity (ln)” value came out at 7.08.

On to “TGCATACTAGCCAATTGTACATAATTTTATTTTAAA [XGTACX_site513]”, for which the “gcPBM binding intensity (ln)” value came out at 7.09.

“ATTATGATTTTATAGAACTGAACATTTACATTAAAT [GTGCAC_negctrl_site192]”: the “gcPBM binding intensity (ln)” value stood at 6.86.

Take “AAAATAAATCTGAATGGGGTATAATATATCTTTGTT [CACACA_negctrl_site744]”: the “gcPBM binding intensity (ln)” value worked out at 6.82.

Turning to “AAAAGGAACAGACACACACACATATATATATATATA [CACACA_site3587]”, the “gcPBM binding intensity (ln)” value came out at 9.9.

On to “ATTTATTATATATACACACATACATATATATATATA [CACACA_site2159]”, for which the “gcPBM binding intensity (ln)” value came out at 9.14.

For the sequence “ATAACAAAATAAAACACACACACAAATGTACTTATA [CACACA_site8768]”, the “gcPBM binding intensity (ln)” value turned out to be 6.94.

Turning to “TGCTTTTATTTCTTCACACATATGTAAAAAAAAGAA [CACACA_site5906]”, the “gcPBM binding intensity (ln)” value is 7.72.

For “AAAAAATTCTGGTACTGTACACATTTTTTTAAATTT [XGTACX_site6904]”, the “gcPBM binding intensity (ln)” value amounted to 7.18.

On to “ATATGAGAGAATAAAACACACAAAAAAAAAAAAAAA [CACACA_site2865]”, for which the “gcPBM binding intensity (ln)” value was 6.95.

Take “TAATAATCAAGTTAACGTACAAAATCATCTATAGAA [XGTACX_site5921]”: the “gcPBM binding intensity (ln)” value amounted to 6.92.

“GTAGCCTTTCTTTATAAAGGCAAACAAACAAAAAAT [CACACA_negctrl_site1491]”: the “gcPBM binding intensity (ln)” value was found to be 7.3.

For the sequence “AAAAATTAAAAGAAAATACACACCTGTGGGTGCTTA [CACACA_site1988]”, the “gcPBM binding intensity (ln)” value came out at 7.66.

As for TTATATAGGCAGATGGTGCATCTATTTATAAGCAAC, the “gcPBM binding intensity (ln)” value came to 10.7.

For the sequence “TGTATGTATTTTCAATGTACATAAAAAAAAAAAAAA [XGTACX_site4397]”, the “gcPBM binding intensity (ln)” value came to 7.15.

Take TATTTTTTTTGTTAGGTGCATTTACATTTATTTTTA: the “gcPBM binding intensity (ln)” value was 9.93.

As to “AAAAAAAAAAGTTCTACACACACAAAAAAATATTTT [CACACA_site8725]”, the “gcPBM binding intensity (ln)” value came out at 6.82.

On to “TATAATATAATTAAAAGTACTTAAAAAAGAATGAAA [XGTACX_site1157]”, for which the “gcPBM binding intensity (ln)” value turned out to be 7.43.

As for “TGTTTATATAATATTCTACACACCAACAACAAACAT [CACACA_site8087]”, the “gcPBM binding intensity (ln)” value is 7.45.

Regarding “TTTTTAAAACATATCACACATATATATATATATATA [CACACA_site5991]”, the “gcPBM binding intensity (ln)” value is 9.59.

Regarding “TATTTTTATAAAAATCGTACAAGTGATCCAATTTTT [XGTACX_site4402]”, the “gcPBM binding intensity (ln)” value amounted to 6.87.

Regarding “CCGTATTCAAAAAGGAGTACACAATTATATGTTATA [XGTACX_site641]”, the “gcPBM binding intensity (ln)” value was found to be 6.82.

“AAAAAAAAAAAAAAATGTACATATATATAAATATAT [XGTACX_site6768]”: the “gcPBM binding intensity (ln)” value stood at 7.25.

As to “ATATATATATATATATGTACATATTTTTATTTATAC [XGTACX_site2858]”, the “gcPBM binding intensity (ln)” value is 9.51.

Take “TATGTAATGTTTACAACACACAAATTATAAATACAA [CACACA_site1771]”: the “gcPBM binding intensity (ln)” value amounted to 6.95.

With “TATTTATATGTATATACATGCACATATATATGAAAC [TGCATGCA_site1005]”, the “gcPBM binding intensity (ln)” value was determined as 7.7.

In the case of “CTATTTTATATGTGCACACATATACTCAGACAAATA [CACACA_site4761]”, the “gcPBM binding intensity (ln)” value worked out at 9.42.

As to “ACCTATATACTAAATGCACACTTATATATTTATATA [CACACA_site5371]”, the “gcPBM binding intensity (ln)” value is 7.63.

In the case of “TAATTCGCATTTTATACACACATTCGAACCTTTTTT [CACACA_site7549]”, the “gcPBM binding intensity (ln)” value is 6.96.

As for “AAATTAATACATTATTGTACTTTTCATGTGCAGAAA [XGTACX_site8284]”, the “gcPBM binding intensity (ln)” value was found to be 7.02.

With “CATATTACATTAAATTGTACATATATATATATATAT [XGTACX_site3295]”, the “gcPBM binding intensity (ln)” value stood at 9.7.

Take “CGGATGAATATATATGCACACATCTTTTGTAAAAAT [CACACA_site3190]”: the “gcPBM binding intensity (ln)” value turned out to be 7.6.

Turning to “TGTATAAATATATGCACACATATATATATTTATATA [CACACA_site3473]”, the “gcPBM binding intensity (ln)” value was 7.31.
